# About 2,200 (0.71%) of roughly 310,000 compounds showed an effect of 50% or more. The effect is printed as a negative number. Some of the results follow.
# Biological target: human ether-à-go-go-related gene (hERG) potassium channel (human, UniProt Q12809)
# Experiment: primary screen, population patch clamp on CHO cells stably expressing hERG
# human ether-à-go-go-related gene (hERG) potassium channel, sequence (Q12809 whole entry, looked up): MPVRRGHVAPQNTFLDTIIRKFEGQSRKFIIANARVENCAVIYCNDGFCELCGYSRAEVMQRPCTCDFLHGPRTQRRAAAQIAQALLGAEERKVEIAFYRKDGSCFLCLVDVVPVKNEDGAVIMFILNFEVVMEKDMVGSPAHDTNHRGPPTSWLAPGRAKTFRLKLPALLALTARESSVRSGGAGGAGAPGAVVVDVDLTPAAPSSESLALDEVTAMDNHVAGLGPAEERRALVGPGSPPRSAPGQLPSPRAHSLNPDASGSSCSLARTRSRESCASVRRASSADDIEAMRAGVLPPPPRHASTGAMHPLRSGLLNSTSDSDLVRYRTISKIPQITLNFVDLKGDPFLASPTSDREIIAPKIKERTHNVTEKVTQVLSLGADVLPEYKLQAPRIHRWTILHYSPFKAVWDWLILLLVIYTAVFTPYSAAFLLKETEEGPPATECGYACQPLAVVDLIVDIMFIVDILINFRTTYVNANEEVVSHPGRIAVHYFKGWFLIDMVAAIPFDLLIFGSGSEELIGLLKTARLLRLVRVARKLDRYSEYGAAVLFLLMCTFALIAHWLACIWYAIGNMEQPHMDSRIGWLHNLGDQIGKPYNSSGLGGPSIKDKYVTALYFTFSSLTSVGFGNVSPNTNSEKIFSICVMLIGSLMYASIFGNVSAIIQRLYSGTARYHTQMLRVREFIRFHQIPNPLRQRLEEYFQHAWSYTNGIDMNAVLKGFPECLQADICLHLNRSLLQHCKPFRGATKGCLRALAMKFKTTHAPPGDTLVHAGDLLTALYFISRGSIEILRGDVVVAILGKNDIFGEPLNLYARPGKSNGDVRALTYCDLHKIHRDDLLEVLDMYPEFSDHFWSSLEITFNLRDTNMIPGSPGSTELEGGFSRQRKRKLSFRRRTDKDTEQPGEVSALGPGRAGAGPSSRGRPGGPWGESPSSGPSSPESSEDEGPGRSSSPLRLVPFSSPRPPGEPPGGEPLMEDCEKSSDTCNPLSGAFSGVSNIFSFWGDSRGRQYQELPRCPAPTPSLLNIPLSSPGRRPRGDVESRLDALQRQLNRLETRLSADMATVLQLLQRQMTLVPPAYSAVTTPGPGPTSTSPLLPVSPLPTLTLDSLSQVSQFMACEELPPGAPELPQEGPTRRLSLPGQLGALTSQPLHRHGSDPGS
row,Structure (SMILES),"hERG current change (%, negative = inhibition) at 1uM"
1,COc1ccccc1C(=O)NN=C1CCN(Cc2ccccc2)CC1,5.41%
2,Cc1cccc(C(=O)OCC(=O)NC(=O)c2ccccc2)c1O,16.9%
3,Cc1ccc(NS(=O)(=O)Cc2ccccc2)cc1Cl,12.5%
4,COC(=O)C1=C(C)NC2=C(C(=O)CC(C)(C)C2)C1c1cccc(C)n1 (stereo not shown),15.2%
5,CCSc1nnc(NC(=O)c2nc(S(=O)(=O)Cc3ccc(F)cc3)ncc2Cl)s1,11.8%
6,COc1ccc(/C=C/C(=O)NCCn2c(C)cc3ccccc32)cc1OC,12.1%
7,Cc1ccc(N2CC(C(=O)NCc3ccccn3)CC2=O)cc1 (stereo not shown),4.34%
8,COC(=O)CC1=C(C(=O)OC)C(c2cccs2)C(C#N)=C(N)O1 (stereo not shown),7.67%
9,Cc1ccc(NC(=O)c2ccc(S(=O)(=O)N3CCC(C)CC3)cc2)nc1,1.5%
10,Cc1ccccc1CN(c1ccc(C(=O)NCCC2=CCCCC2)cc1)S(C)(=O)=O,-1.37%
11,COc1ccccc1/C=N/NC(=O)c1nnn(-c2nonc2N)c1CSC1=NCCS1,0.888%
12,CCN1C(=O)[C@H]2[C@H]3[C@H](O)[C@H](O)C/C(=N\OC[C@@H](C)[C@H](OCc4ccccc4)C(C)C)[C@@H]3CC[C@H]2C1=O,9.08%
13,C=CCCC(=O)Nc1nc(C)c(-c2csc(Nc3ccccc3OC)n2)s1,-4.33%
14,O=C(N/N=C/c1ccccc1F)c1cc2c(ccc3ccccc32)o1,-1.27%
15,Cc1ccc(NC(=S)N(Cc2cccs2)Cc2cc3cc(C)cc(C)c3[nH]c2=O)cc1,6.02%
16,CCCCc1ccc(NC(=S)NCc2cccnc2)cc1,12%
17,Cc1nc2ccccn2c1C(=O)NNC(=S)Nc1ccccc1,13.3%
18,O=C1CC2(CCN(C(=O)c3c(F)cccc3Cl)CC2)Oc2ccccc21,-4.7%
19,CCO[C@@H]1OC(C(=O)NCc2nc3ccccc3[nH]2)=C[C@H](c2csc3ccccc23)[C@H]1CCCO,-10.7%
20,CCOC(=S)SCc1cn2ccccc2n1,15.5%
21,O=C1/C(=C\c2ccncc2)CCc2ccccc21,2.69%
22,CCOP(=O)(OCC)C(C#N)=C1SCN(c2ccc(Cl)cc2)CS1,11.8%

row,Structure (SMILES),"hERG current change (%, negative = inhibition) at 1uM"
1,COc1ccc2[nH]c(C(=O)O)c(NS(=O)(=O)c3ccc(F)cc3)c2c1,18%
2,CCSC(=O)NC1CCCCC1,7.54%
3,NC(=O)CC(NC(=O)Cc1cccc2ccccc12)c1ccc(NCCN2CCCC2)c([N+](=O)[O-])c1 (stereo not shown),1.67%
4,CC(=O)NS(=O)(=O)c1ccc(NC(=O)CCC2CCCC2)cc1,9.2%
5,CCN1CCSc2ccc(C(=O)NCc3cc(Br)ccc3OC)cc21,9.1%
6,CCOc1ccc(CNC(=O)CCCN2C(=O)C(c3ccccc3)Oc3cccnc32)cc1 (stereo not shown),13.6%
7,CN(Cc1ccc2c(c1)OCCO2)C(=O)CN1C(=O)NC2(CCCCC2)C1=O,7.98%
8,COc1cccc(C(=O)NC(=S)Nc2ccccc2N2CCCC2)c1,10.6%
9,O=C(NNC(=O)c1ccc(O)cc1O)c1ccc(Cl)cc1,8.25%
10,COc1ccccc1C(=O)COC(=O)Cn1c(C)csc1=O,2.3%
11,CC(=O)Nc1ccc(/C=C(\C#N)C(=O)NC2CCCCC2C)cc1 (stereo not shown),0.771%
12,O=C1CC(SC(=NCc2ccc3c(c2)OCO3)Nc2ccccc2)C(=O)N1c1ccccc1 (stereo not shown),8.37%
13,COc1ccccc1NC(=O)CN1CCN(CC(=O)Nc2ccc(C)c(F)c2)CC1,-49.1%
14,COc1ccc(COC(=O)CCS(=O)(=O)c2ccc(C)cc2)cc1,24.8%
15,CCN1CCN(C(C(=O)NC2CCCCC2)c2ccc(Cl)cc2)CC1 (stereo not shown),4.54%
16,O=C(NC1CCCCNC1=O)c1ccco1 (stereo not shown),8.47%
17,COc1cc2ccc(=O)oc2c(CC=C(C)C)c1OC,0.29%
18,C/C(=N\NS(=O)(=O)c1ccc(C)cc1)c1ccc(Br)s1,12.9%
19,Cc1ccc(S(=O)(=O)Nc2ccc3[nH]c(=O)[nH]c3c2)c(C)c1,11.4%
20,CN(C)C(=S)SCCn1c(N)nc(N(C)C)nc1=O,2.37%
21,CCN(CC)S(=O)(=O)c1ccc2c(c1)N(CC(=O)Nc1cccnc1Cl)C(=O)CO2,5.06%

# Source: PMC4336329 (PLoS ONE, 2015)
